The source gives no read counts; variants with many changes may rest on few reads.

To fix the notation:
B1: LINE1-mini (parent)
chain: GGCAGAGCUCAACACAGCGUGGCAAAGUGGCUGUGGCUAGACUGCC

This data set covers variants of B1. The data set can be described thus: self-cleavage, relative activity (ratio to wild type); higher = more cleavage; in vitro, sequencing; the parent is a self-cleaving ribozyme.
For the variant A6G C8U C42A, the self-cleavage was found to be 0.07.

With A6G G30U C31G G44U, the self-cleavage is 0.03.

Consider A6C U20G G30C U32G, for which the self-cleavage was found to be 0.09.

On to A6G C10G U20C, for which the self-cleavage came out at 0.01.

Turning to A6G C15U U38A G40C A41C, the self-cleavage came to 0.12.

As for A6C C10G G36C U38C A39C, the self-cleavage turned out to be 0.01.

For the variant A6U A25G C42U, the self-cleavage came to 0.15.

As to A6C G33U U38C, the self-cleavage was found to be 0.08.

On to A6G A11U U32G, for which the self-cleavage is 0.03.

As to A6C C10A U20C, the self-cleavage was 0.02.

With A6G U38G A39U, the self-cleavage stood at 0.

With A6C C10A C23A G35U A39U, the self-cleavage was found to be 0.

Turning to A6G C10A C18U G30A, the self-cleavage amounted to 0.04.

Consider A6G A16C C23U C42A G44U, for which the self-cleavage worked out at 0.02.

In the case of A6C G7A G40U, the self-cleavage was found to be 0.36.

In the case of A6C G7A G40A, the self-cleavage worked out at 0.08.

In the case of A6G A25C G44U, the self-cleavage was determined as 0.02.

For A6G C18G G19A, the self-cleavage is 0.07.

Take A6G C8A C18A G19A G36C G44C: the self-cleavage was determined as 0.02.

In the case of A6C G7C G19A, the self-cleavage was 0.09.

As for A6G A12U U28A U32A, the self-cleavage is 0.04.

Turning to A6G C13U G17U, the self-cleavage was determined as 0.18.

In the case of A6C G7C U9G U38G, the self-cleavage came out at 0.

A6C U32A U38A: the self-cleavage is 0.05.

Turning to A6C G17C U32A, the self-cleavage came to 0.03.

A6G G7C A26C: the self-cleavage came out at 0.08.

With A6C G21U A25C, the self-cleavage worked out at 0.07.

With A6G C13U U34C, the self-cleavage amounted to 0.04.

As for A6G A12C A24G C31U G35U, the self-cleavage was determined as 0.02.

In the case of A6C G19C A25C U32G G40A, the self-cleavage was 0.09.

Turning to A6G U9G G29U G35U, the self-cleavage worked out at 0.01.

Consider A6U A14G C23A G44U, for which the self-cleavage was found to be 0.25.

Consider A6G C31G U43A, for which the self-cleavage turned out to be 0.03.

A6G A12C G17U G36U: the self-cleavage stood at 0.07.

On to A6G G29C G40C, for which the self-cleavage is 0.06.

Consider A6C G22U C31U U32G, for which the self-cleavage was found to be 0.09.

For the variant A6C G30C U34G G36U, the self-cleavage was found to be 0.04.

As to A6C G30C U34C C46G, the self-cleavage is 0.11.

On to A6G U38A G40C, for which the self-cleavage amounted to 0.16.

A6C G27C G29U: the self-cleavage was 0.15.

A6G G19U A39U G44A: the self-cleavage amounted to 0.06.

Regarding A6G C10U A11G G17A, the self-cleavage came out at 0.01.

A6C G7U G22A A24U A25U C37U U43G: the self-cleavage came to 0.

On to A6G A14G A41U G44U, for which the self-cleavage stood at 0.06.

In the case of A6C G7C C18A C46A, the self-cleavage was determined as 0.07.

With A6G C10A G27A U28C U38C A39C, the self-cleavage is 0.

In the case of A6C G17A C23U U28A G30U A39U, the self-cleavage is 0.32.

A6C C10A A14U G17C G22A A24C: the self-cleavage is 0.02.

As to A6C C42G C46A, the self-cleavage was 0.03.

In the case of A6G A12U G19C, the self-cleavage was determined as 0.04.

On to A6C U9G A25C C31G, for which the self-cleavage was 0.02.

On to A6C C10U G40U C46A, for which the self-cleavage was 0.03.

On to A6C U9A G27A C37A, for which the self-cleavage was found to be 0.13.

As to A6G G21A G29A U34G G40A, the self-cleavage was 0.01.

A6G A12C A16C C37A: the self-cleavage came to 0.01.

As to A6G A14U U28G, the self-cleavage came to 0.01.

For A6G G27U G40C, the self-cleavage was 0.16.

Take A6C G19C C23U: the self-cleavage is 0.4.

Turning to A6G G22A C23G, the self-cleavage amounted to 0.06.

For A6C G21A U32G, the self-cleavage amounted to 0.

Regarding A6G C15U C23G, the self-cleavage was found to be 0.11.

As to A6G C31U G35U, the self-cleavage was determined as 0.01.

As for A6G U9G C10A C18A C37A, the self-cleavage is 0.

Consider A6U A12G A16C U20C G36C C42A, for which the self-cleavage amounted to 0.04.

Take A6U A16G G22U: the self-cleavage is 0.31.

For the variant A6G C10U C13U U20A G21U U38C, the self-cleavage is 0.01.

As for A6G C42G G44U, the self-cleavage amounted to 0.04.

In the case of A6G A14G A16C C37A C46U, the self-cleavage is 0.06.

For A6C G7C C13U A25G, the self-cleavage was 0.07.

For A6G G29A A39U, the self-cleavage came to 0.18.

For the variant A6G A24G G35U, the self-cleavage is 0.01.

For the variant A6U A26U G30U, the self-cleavage is 2.71.

Regarding A6C U20G C23U G29U, the self-cleavage was 0.4.

Turning to A6C C15U U38A, the self-cleavage is 0.21.

Regarding A6C G30C G35A C45U, the self-cleavage came to 0.05.

Regarding A6C G17A G21U U28C U34C G36A U38G A39C, the self-cleavage was 0.

With A6C C15U U20A G22A C23A C42U, the self-cleavage was determined as 0.08.

In the case of A6U A14G G33C, the self-cleavage was determined as 0.07.

Turning to A6U A12G C18A G21A G22C C37U G40C, the self-cleavage turned out to be 0.03.

A6U A14G C15U C23U A25G A39U: the self-cleavage worked out at 0.3.

As to A6U A11U C13G C37U, the self-cleavage came out at 0.01.

Consider A6G G29U C46G, for which the self-cleavage was found to be 0.12.

Take A6G C8A U38C C46U: the self-cleavage came out at 0.18.

Consider A6G C13A A41C, for which the self-cleavage stood at 0.

Take A6G C31U C37G G40C U43A C46G: the self-cleavage was determined as 0.03.

Consider A6G A16G U38G C46U, for which the self-cleavage stood at 0.

As for A6C G7C C10U A11G G22C, the self-cleavage is 0.01.

For the variant A6C G7A A11C A14G G35U A41G, the self-cleavage worked out at 0.02.

With A6G A24G G27U G36C C37A, the self-cleavage amounted to 0.12.

A6C U9A C42U U43G: the self-cleavage is 0.12.

As to A6C C23G G44A, the self-cleavage was 0.19.

Take A6G C10A A12U A14U U38A A41C: the self-cleavage came to 0.01.

As to A6C C8U C10U C18U G27U, the self-cleavage stood at 0.04.

Consider A6U A11C C13A U38A, for which the self-cleavage was 0.

As to A6G C10U U28G C37U, the self-cleavage was 0.02.

On to A6U A11U A41G G44C, for which the self-cleavage came to 0.02.

Consider A6G A14U G19C C37A, for which the self-cleavage is 0.

In the case of A6G C23A A39U G40A G44U C45G, the self-cleavage is 0.08.

As for A6G A14U C45G, the self-cleavage is 0.11.

For the variant A6U A14G A16G G17U, the self-cleavage amounted to 0.02.

Turning to A6G U9A A11U C13A G19A G27U C45U, the self-cleavage amounted to 0.02.

Consider A6G A12G G27U G35U C42A U43A, for which the self-cleavage was determined as 0.01.

Consider A6U A16U G17C G29U, for which the self-cleavage stood at 0.07.

Turning to A6C U28G G33U C37A, the self-cleavage came out at 0.04.

With A6G A12U G36A G40U, the self-cleavage was determined as 0.03.

As for A6C G17C G22C, the self-cleavage was 0.17.

For the variant A6G G30U G33U, the self-cleavage came out at 0.03.

Consider A6C C15U U34G, for which the self-cleavage came to 0.08.

For the variant A6C U32A U34C U38G, the self-cleavage amounted to 0.05.

Consider A6C C13G C15A C23A, for which the self-cleavage was 0.03.

In the case of A6G A14G C37A, the self-cleavage was determined as 0.1.

For the variant A6G A14G U20A U32C A39U, the self-cleavage amounted to 0.17.

Regarding A6C U20G A26C, the self-cleavage is 0.62.

With A6C U9C C13A G17A G27U U28C C31U, the self-cleavage is 0.02.

With A6C U9A A24G C46U, the self-cleavage was 0.17.

As to A6C C15A A26U, the self-cleavage came to 0.03.

As for A6C G19U C42A, the self-cleavage was determined as 0.06.

For A6G G21U C23U C37U, the self-cleavage is 0.12.

For A6G U9C C15G U28C A41C, the self-cleavage is 0.

Regarding A6G G7U U20C, the self-cleavage was determined as 0.09.

Take A6C C31U C37G: the self-cleavage turned out to be 0.05.

Take A6C C31U C37A: the self-cleavage is 0.05.

As for A6G C23G C37G, the self-cleavage was 0.01.

Take A6C G7U A25C C45U: the self-cleavage amounted to 0.01.

In the case of A6G A24C G40U G44C, the self-cleavage was 0.02.

With A6C C15A G19C, the self-cleavage came out at 0.19.

For the variant A6G C8A C42G C46A, the self-cleavage came out at 0.08.

As for A6G C13A U32A C45G, the self-cleavage was 0.05.

For the variant A6G G17U G36A, the self-cleavage was determined as 0.02.

With A6U A24U U28G, the self-cleavage is 1.27.

For the variant A6G A26C C37A, the self-cleavage came to 0.01.

In the case of A6C U9A G22C, the self-cleavage came out at 0.18.

Consider A6C G7A A16C, for which the self-cleavage is 0.07.

With A6G C10A C13A U32A, the self-cleavage was found to be 0.02.

A6G C13G G19U G35C C46U: the self-cleavage stood at 0.16.

With A6G U9G G33A, the self-cleavage stood at 0.07.

Consider A6C G21A C31A U34C A39G, for which the self-cleavage was 0.13.

In the case of A6G A14G U28G G36U, the self-cleavage came out at 0.01.

In the case of A6U A14G G19U C23U, the self-cleavage amounted to 0.36.

In the case of A6C C10A G17U G19C A41U U43G, the self-cleavage was 0.18.

With A6G G29A C37U, the self-cleavage is 0.

As for A6C G19C U20G A26G A39C A41U, the self-cleavage was 0.04.

As for A6G A26G G36C, the self-cleavage was determined as 0.02.

Turning to A6G C8U A11U G40U, the self-cleavage came out at 0.01.

Take A6G U9C A25G G30C A41U: the self-cleavage came out at 0.02.

Turning to A6G C10U C15U, the self-cleavage worked out at 0.06.

Consider A6U A12G A16G G29C C42G, for which the self-cleavage amounted to 0.

Take A6C U9C C15A G22C A25G: the self-cleavage came to 0.01.

As to A6G A14G G21U A26U G29U G30A A41C, the self-cleavage came out at 0.17.

A6C C10A A12C A16C: the self-cleavage was 0.

Consider A6C C15G C42U, for which the self-cleavage is 0.01.

In the case of A6G C8U C10A C15G G36A C46A, the self-cleavage came out at 0.02.

Consider A6C C13U A26C, for which the self-cleavage came out at 0.68.

As for A6G C18A C31U, the self-cleavage turned out to be 0.

As to A6G C8A G36U, the self-cleavage was 0.08.

Turning to A6G C10U A16U U32A, the self-cleavage stood at 0.02.

A6C C10U C23A: the self-cleavage is 0.13.

On to A6G C15A G30A C37U, for which the self-cleavage stood at 0.13.

Take A6G C10U C23G G30U: the self-cleavage was found to be 0.02.

As for A6G C23G A25U G30A, the self-cleavage was 0.11.

As to A6G C10A G22A C45A, the self-cleavage was 0.

On to A6C C10U C46A, for which the self-cleavage amounted to 0.07.

As for A6U A11C G33A, the self-cleavage came to 0.04.

Regarding A6G A12C G22U G40C, the self-cleavage turned out to be 0.01.

A6G C10A A11G G17C G19A A39C C46G: the self-cleavage was 0.01.

Take A6C C18A G19A U20A G30U: the self-cleavage worked out at 0.45.

Take A6U A16C U43G G44A: the self-cleavage came to 0.02.

Values taken from the RNAGym collection of RNA variant scans (doi:10.7554/elife.90254).
